Source: article PMC9050003, “N- and C-terminal regions of the small heat shock protein IbpA from Acholeplasma laidlawii competitively govern its oligomerization pattern and chaperone-like activity†” (RSC Advances, 2020)

Legend:
Assay in all cases: pull-down; His6-AlIbpA proteins (0.4 mg) and bovine insulin (0.4 mg) in 300 μl 50 mM Tris–HCl pH 8.0, 200 mM NaCl, 30 min at 37 °C; Ni-NTA sepharose, eluted with 500 mM imidazole; 17.5% SDS-PAGE; grade from the ratio of band densities
Settings in all cases: both partners purified
AlIbpAΔN25 = molecular target: T1, AlIbpAΔN25 (Acholeplasma laidlawii, UniProt A9NFB2 26-137)
T1 construct: AlIbpA of Acholeplasma laidlawii PG8 with 25 N-terminal amino acids removed (lacks both (W/F)(D/F)PF-like motifs); source: E. coli BL21(DE3), purified (Ni-NTA); not shown: His6, N-terminal, kept
T1 sequence (looked up): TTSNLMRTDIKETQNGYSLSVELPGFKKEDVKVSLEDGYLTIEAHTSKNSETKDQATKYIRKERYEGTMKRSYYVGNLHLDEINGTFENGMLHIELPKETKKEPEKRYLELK

AlIbpASEPΔN25 = molecular target: T2, AlIbpASEPΔN25 (Acholeplasma laidlawii, UniProt A9NFB2 26-137, L134 replaced by S134 | L136 replaced by P136)
T2 construct: AlIbpA of Acholeplasma laidlawii PG8 lacking 25 N-terminal amino acids and with LEL substituted by SEP (L134S, L136P); source: E. coli BL21(DE3), purified (Ni-NTA); not shown: His6, N-terminal, kept
T2 sequence (looked up): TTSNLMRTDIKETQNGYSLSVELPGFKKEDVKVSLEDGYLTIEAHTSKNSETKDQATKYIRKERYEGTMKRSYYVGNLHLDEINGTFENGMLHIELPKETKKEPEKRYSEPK

[1] = molecular target: T3, full-length recombinant AlIbpA (small heat shock protein IbpA from Acholeplasma laidlawii), His6-tagged (Acholeplasma laidlawii, UniProt A9NFB2 1-137)
T3 construct: small heat shock protein IbpA (AlIbpA) of Acholeplasma laidlawii PG8, full length; Legends call it AlIbpA-His6, the methods say the His6 tag is N-terminal; In solution a mixture of about 24-mer globules, fibrils and agglomerates; also called AlIbpA-His6; His6-IbpA; source: E. coli BL21(DE3), purified (Ni-NTA); also in E. coli BL21 pET-IbpA cells, cross-linked in the cells, crude cell extract; not …
T3 sequence (looked up): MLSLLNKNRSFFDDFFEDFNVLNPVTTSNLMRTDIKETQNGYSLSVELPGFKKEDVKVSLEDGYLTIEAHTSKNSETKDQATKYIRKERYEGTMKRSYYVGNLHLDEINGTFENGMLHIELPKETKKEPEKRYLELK

AlIbpAN11N12 = molecular target: T4, AlIbpAN11N12 (Acholeplasma laidlawii, UniProt A9NFB2 1-137, F11 substituted by N11 | F12 substituted by N12)
T4 construct: AlIbpA of Acholeplasma laidlawii PG8 with F11F12 substituted by N11N12, complete N-terminus length kept; source: E. coli BL21(DE3), purified (Ni-NTA); not shown: His6, N-terminal, kept
T4 sequence (looked up): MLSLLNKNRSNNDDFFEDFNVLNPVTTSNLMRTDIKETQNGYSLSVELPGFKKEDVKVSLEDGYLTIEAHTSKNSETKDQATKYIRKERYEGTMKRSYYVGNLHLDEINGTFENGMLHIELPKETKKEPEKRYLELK

AlIbpAΔN12 = molecular target: T5, AlIbpAΔN12 (Acholeplasma laidlawii, UniProt A9NFB2 13-137)
T5 construct: AlIbpA of Acholeplasma laidlawii PG8 lacking the first 12 amino acid residues; source: E. coli BL21(DE3), purified (Ni-NTA); not shown: His6, N-terminal, kept
T5 sequence (looked up): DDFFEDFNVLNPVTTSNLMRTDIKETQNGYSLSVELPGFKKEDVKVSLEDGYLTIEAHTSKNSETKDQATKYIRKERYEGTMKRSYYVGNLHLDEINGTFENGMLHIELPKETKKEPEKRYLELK

AlIbpASEPΔN12 = molecular target: T6, AlIbpASEPΔN12 (Acholeplasma laidlawii, UniProt A9NFB2 13-137, L134 replaced by S134 | L136 replaced by P136)
T6 construct: AlIbpA of Acholeplasma laidlawii PG8 lacking 12 N-terminal amino acids and with LEL substituted by SEP (L134S, L136P); source: E. coli BL21(DE3), purified (Ni-NTA); not shown: His6, N-terminal, kept
T6 sequence (looked up): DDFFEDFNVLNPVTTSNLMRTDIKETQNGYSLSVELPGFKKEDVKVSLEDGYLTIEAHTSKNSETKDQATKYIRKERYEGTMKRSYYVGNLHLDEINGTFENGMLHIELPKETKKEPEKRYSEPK

Measured: binding result

B1: bovine insulin (natural protein)
chain 1: not shown
chain 2: not shown
notes: The catalogue number is printed for the SPR experiment; the pull-down methods say only bovine insulin (Sigma); source: bought: Sigma (SigmaAldrich cat no. I6634)
binds: all assays above
